# Results published in article PMC10726135.
# This is one part of the list. At the low end of the ranking, values are background and their order means little. The protein was read in a cell extract, so binding may be indirect.
# Target: T1, HNF4alpha8 (COS-7 nuclear extract) (UniProt P41235-5)
# T1 sequence: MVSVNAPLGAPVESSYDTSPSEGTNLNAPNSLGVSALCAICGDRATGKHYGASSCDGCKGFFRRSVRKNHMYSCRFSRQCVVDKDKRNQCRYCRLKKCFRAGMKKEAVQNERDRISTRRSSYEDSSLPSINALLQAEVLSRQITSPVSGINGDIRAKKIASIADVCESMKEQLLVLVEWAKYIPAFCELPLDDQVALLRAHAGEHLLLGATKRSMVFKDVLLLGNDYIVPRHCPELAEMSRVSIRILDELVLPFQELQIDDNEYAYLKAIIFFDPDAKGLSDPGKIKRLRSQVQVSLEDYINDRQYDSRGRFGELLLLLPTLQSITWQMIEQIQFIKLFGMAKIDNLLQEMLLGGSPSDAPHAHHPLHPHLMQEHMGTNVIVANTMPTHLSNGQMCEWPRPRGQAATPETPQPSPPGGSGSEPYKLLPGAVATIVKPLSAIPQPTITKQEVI
# Test: protein-binding microarray
# Details: COS-7 nuclear extract on double-stranded Agilent 4x180k PBM; binding buffer, salt, pH and temperature not given; high values mean tight binding; double strand, one strand shown; sequences stand for … in …GCCTAGGGAGATTAGAGTATCGGTCGA
row,Sequence,binding signal (log2 normalized intensity)
1,CGAGCACGGTGCAGGGAGGATATCCCTCCG,-1.21
2,CTGCAAGGTTTGTGTACGGACGCATCTGTC,0.564
3,CATATTTTGAAAGAAAGAGACCTTTACCCT,5.96
4,GCTTAAATTCTTGTATGCTTAACTATGTTT,-0.443
5,ATACAAGCTAATCTGACCAAGTGAACTGTG,2.05
6,CTTAGCAGGATTCTTGCTGCAGCTGGGCTA,-1.37
7,TTCTTTGGTTGGGAATAACATTGTGTAGTT,1.04
8,ACGCAGGGCGGCCGGCGGAGCGCCGAGCAG,-1.22
9,TTCCCTTGGAATGCCAGATGACCTTTGCCC,10.2
10,GTGGTCCTAAGACTGACCTTTGATCATTTG,9.52
11,AACAGTGAGCCCAGTGGAGTAGGCTTTAGA,-1.29
12,GGCTTGTACCTTGACCTTCTCTGTTAACCC,4.96
13,ATTTTGGACTTTGTGCAAATGGAAAATTGT,3.52
14,TAAGATTGAGAACTTTGACACCGAGGCATA,1.97
15,CCTTGCCACCCACACTGCAGCAAAACTTTA,-0.731
16,CAGAAAAGGCTGTAAACTCACTCTGGGAAA,-1.32
17,GGGCTACCGATATGAGGCTTCCATTCTCAG,-1.33
18,TCTCATTTCTGAACACTCCAAGGTGTCCAG,0.334
19,TGGACAGAAATATCAGCAAGGAAATAAAAG,-1.39
20,AGCCAATAGGCGAGGACGCAGTCCCGCGTG,-1.27
21,AGTCCAGAGTTTGTGGCTCCATACTCCTTA,-1.15
22,ACACCTCTTCTTTCTTCTCTGGTACCCTGG,1.92
23,ACCTAGTAGGCACAAAGGTGCAAAGTACAT,5.14
24,CACAATGTCAGTGAGGCCAAAAGGTGCTAC,-1.28

row,Sequence,binding signal (log2 normalized intensity)
1,TAAGTGTGGGTTTAAGTAAGCCCCCTTCCC,4.85
2,AAAAAAAAAAAAAAAAAGAACACAGTGTAG,-1.29
3,GATCTTGAGGCCCACAAGGAATTTCCTTGT,-1.26
4,TCAAGCTAGGTAAGCACAGGTTTCTGTCCT,0.42
5,CTCTGCAAACATTTATTTTGTGTGCTAGAT,1.63
6,GTATCTCTTCGCCTTGCTTATCTGGGAGGG,-0.342
7,AAACAAACTCCCAGTCTGTTATCAGAGCTG,-1.29
8,TATCATGAGGTATATTCAACCCCCACTTCC,4.31
9,GAATTCAACCCTTGTCACTTTCCCTTTGTC,1.83
10,TTATCAGCAGGACACCAAACAGACCTCCCC,2.63
11,TGGTTACAAAGGTCACACTCCTGTGCAAAC,4.73
12,TACCACCAAAGAAAAAAGCCAATCTCTCAA,-1.34
13,CTAACAGCTGCAAGTGCCAACAAACTCAAT,-1.3
14,CAAACAGCTTCCAGAATAGCCTCTGCAACT,-1.39
15,GAGTGAAGCCACAGAGATCAGAATCATAAA,-0.979
16,CAGGCTCAGGGACCCAGCGGAATGCCAGCC,-1.19
17,CCTCATGGGCGATCCCGAAAGCCGGTTCCC,-1.29
18,GTATGTGCCTGGAGAGCTAGTAAGGAGCTG,-1.29
19,CTGCGGCGGAAGGACACAGATTCAGAGTCA,-1.14
20,TTGAGCTCTGCACAGCACAAGATAAGATAG,-1
21,GTCCATGATTGCTGTCTACTCTGGGGGTCA,4.23
22,CTTATCTGGCCTGCTGGGAACTCAGGATCA,-0.272
23,GGGTAACTGACCTTGTTGCCCACCCCCCAA,5.8
24,GCTTTGTTCTGTTCCAGTTATGTTCTCTGT,2.24

row,Sequence,binding signal (log2 normalized intensity)
1,TGGTATCCACAGAGTTCATAATTTTGGACT,3.73
2,GAGTTCCTTCAGACCCAATAAACTTGTTTG,0.593
3,GCCAAGGAAGAGAAGACCAAACAACCAGGG,-1.18
4,CTGTCGTCCCAGGGCAAAGGTCACCAGCTA,7.57
5,CATCCAAAGTTTCCTCTCCTGCCCTACTCC,2.47
6,TGCTGAGTATGCAGCGGGCAGCCCGTGTGG,-1.02
7,AAGCCTCAGGAGTTGGAGGAACAGGTGGGG,-1.23
8,ACCAGTCCCATCTGTGCTCATTATTATCAG,0.364
9,CGGGTGGACGTCCCCGGGCGGGATGGGGTC,2.74
10,TAGGCCGGTCAAGTCAGAGGCCCAGCAAGG,-1.37
11,CAGGCCAGTAGGTCAGTGTCCCTCTTATAC,1.01
12,TCCCCTGAGCTTGAGTCCATCCCATCTTCC,1.98
13,GAGACAATCACTTGTATCGCCTGAATGACC,2.3
14,TAATGCTGGTAAAGCACTTTGCCCCCAAGA,6.08
15,CTCTAAATTCCAGGGCTGGGTCCAGGAATG,1.04
16,TTACAACTGTAAACATCTAATGAACTGATT,0.181
17,GCAACTATTTATGAGTCTTGGGAATGAATC,0.816
18,AGATTACTTCAAGGCTGGAGTTCACTCCCA,1.03
19,AGGCTGTCAGAGTGCTGCATGCAAAAAGGC,-1.03
20,CAGAGCTTGCTGCATTCCCCCACCTACTGT,3.72
21,GCCTCTCAGCTCATTCAAAGTCCAAAAAGA,3.55
22,TGCCAAAGGTTAAAATTCCCTGTGGAATTT,2.15
23,TTCTGCTGGATGCCCAGGGATTCCTGAAGA,-0.933
24,TTGGAATGTGACGGCAGGTCCATGGTCAGC,0.882

row,Sequence,binding signal (log2 normalized intensity)
1,GGTATGCCTTTGAAGAGTACAGCCTTGCGT,-0.674
2,GATTTTGTCCTGAGTTATTGGAAGAATGGA,1.31
3,GCCTCCCAGAACGTGGCCTTTAATCAACTG,-0.0579
4,GGCTGAATGGGCAAAGGTCACAAGAGGTGC,5.48
5,ACTTGGGATGCTGAGGTGGGAGGATCGCTT,-1.26
6,TGGACTGTAATACACAAGCAATAGGGTTCG,0.543
7,GCAAGGAACGGAATGTGTGATAAGGAACTG,-1.25
8,AGAGTGCTTAATCTCTGCTCATAATGCCAG,-1.36
9,AAGAAAAGTTATGTTGGGCAACTACCTCAA,-1.29
10,CCACACATTGCCACACTATTTACACAGCTG,-1.31
11,CCAACCGGTTCCACAGTATCCCTTGCTCAA,-1.33
12,AAATGCATTATTGCACTGTGCTTTGTTTAC,1.03
13,TACAAGGAGCAGCCTAGTAAAAGGTAGATA,-1.27
14,GACATCTATCAACATATCTTATCCTCACAC,0.186
15,CTGAGATAGTCATTCTTCTACAGTGTTTAC,0.606
16,AAGGATCAAAGTCACTCAGCCCGAGAAACG,-1.24
17,CCACATGGATGGATTCAGATCCAGTGGACT,2.67
18,CCTCGAGGCAACCTTTGACCTGGTACTATG,6.8
19,TACCAGATAGATGCTGCTCTCCCACTCCCC,2.4
20,AGAATGACCAGGAGTTTGGGATCAGACACG,0.332
21,CCACACCTGTGAAGATCAGCTATCAGTTTA,-0.577
